# PubChem BioAssay (Tox21)
# The shares of active, inactive and inconclusive entries below differ from those in the screen. For some assays here: No potency is given beside an inconclusive call; the fits are too rough. The source made the active and inactive calls. Unless noted, the call rests on the fitted dose curve; in most records, active means well fitted curve in the direction sought with a large enough effect in the repeat runs; inconclusive means weak or mixed curves; inactive means no such curve, though single readings can be large; an effect the other way counts as inactive or inconclusive.
# What was measured:
# [1] = qHTS assay to identify small molecule agonists of the estrogen receptor beta (ER-beta) signaling pathway - cell viability counter screen (AID 1259380); further: nearly all actives have a fitted effect of over 30% in size; further: potency means the concentration at half of the fitted maximal effect; on activity change, negative = cytotoxicity: on the % scale 0 is the no-effect control and ±100 the full control effect
# In short: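 HEK293T ER-beta-UAS-bla; 2% CS-FBS; 6 hr pre-plate, 16 hr cpd at 37C/5% CO2; LiveBLAzer read first, then CellTiter-Glo 30 min RT, luminescence.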
# [2] = target: Thyrotropin-releasing hormone receptor (Homo sapiens) (UniProt P34981); experiment: qHTS assay to identify small molecule antagonists of the thyrotropin-releasing hormone receptor (TRHR) signaling pathway (AID 1346877; active means well fitted inhibition curve with a large enough effect in the repeat runs, not every such curve was filed as active; inconclusive means weak or mixed curves; further: potency means the concentration at half of the fitted maximal effect)
# In short: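 Intracellular calcium fluorescence, read kinetically every second over 3 min, reports TRH-evoked signalling in HEK293 cells carrying TRHR. Test compounds were added 5 min ahead of a 1 nM TRH challenge.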
# [3] = target: Androgen receptor (Homo sapiens) (UniProt P10275); experiment: qHTS assay to identify small molecule agonists of the androgen receptor (AR) signaling pathway in the presence of an antagonist (AID 1259381; calls by dose curve; further: potency means the concentration at half of the fitted maximal effect; nearly all actives have a fitted effect of over 15% in size)
# In short: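 MDA-kb2 cells, 3,000/well, rested 5hr at 37C/0% CO2 → nilutamide 3.0uM final or buffer → compounds, 15 conc. → 16hr at 37C → ONE-Glo, 30min RT → luminescence.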
# [4] = target: Estrogen receptor (Homo sapiens) (UniProt P03372); experiment: qHTS assay to identify small molecule agonists of the estrogen receptor alpha (ER-alpha) signaling pathway in the presence of an antagonist (AID 1259383; calls by dose curve; further: potency means the concentration at half of the fitted maximal effect; nearly all actives have a fitted effect of over 15% in size)
# In short: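 VM7Luc4E2, endog. ER-alpha + 4×ERE-luc; charcoal-stripped FBS, phenol red-free, 5 d; 24hr plating; +10.0nM ICI-182,780 (final); cpds 15 conc, 22hr, 37C/5% CO2; ONE-Glo luminescence.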
# [5] = target: Progesterone receptor (Homo sapiens) (UniProt P06401); experiment: qHTS assay to identify small molecule antagonists of the progesterone receptor (PR) signaling pathway (AID 1346795; active means well fitted inhibition curve with a large enough effect in the signal ratio in the repeat runs, not every such curve was filed as active; inconclusive means weak or mixed curves; the % refers to the signal ratio; further: potency means the concentration at half of the fitted maximal effect; on activity change, negative = inhibition: on the % scale 0 is the no-effect control and ±100 the full control effect); conditions: PR-UAS-bla HEK293T, beta-lactamase FRET ratio, 16 h; activity change, negative = inhibition: at 92.4 µM (top of the series) unless noted
# In short: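 Fluorescence intensity measured 2 hr after adding beta-lactamase FRET substrate to PR-UAS-bla HEK293T cells that had been co-treated 16 hr with compound and 1 nM R5020 (final concentration) in 2% charcoal-stripped FBS.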
# [6] = qHTS assay to identify small molecule antagonists of the estrogen receptor beta (ER-beta) signaling pathway - cell viability counter screen (AID 1259382); further: nearly all actives have a fitted effect of over 55% in size; further: potency means the concentration at half of the fitted maximal effect;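 on activity change, negative = cytotoxicity: HEK293T cells carrying ER-beta-UAS-bla reporter stimulated with estradiol; on the % scale 0 is the no-effect control and ±100 the full control effect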
# In short: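 Cells: ER-beta-UAS-bla HEK293T, 2,000/well, 2% CS-FBS, 6 hr settle. Cpd + E2 (1nM final), 16 hr, 37C/5% CO2. Bla FRET substrate 2 hr RT, then CellTiter-Glo 30 min RT, luminescence.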
# [7] = qHTS assay to identify small molecule agonists of the progesterone receptor (PR) signaling pathway - cell viability counter screen (AID 1346799; calls by dose curve; further: nearly all actives have a fitted effect of over 45% in size; further: potency means the concentration at half of the fitted maximal effect)
# In short: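 In parallel with the beta-lactamase readout, cytotoxicity toward PR-UAS-bla HEK293T cells was measured by CellTiter-Glo luminescence following 16 hr compound incubation in 2% charcoal-stripped FBS medium.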
# [8] = qHTS assay to identify small molecule agonists of the TGF-beta/Smad signaling pathway (AID 1346859; active means well fitted activation curve with a large enough effect in the signal ratio in the repeat runs, not every such curve was filed as active; inconclusive means weak or mixed curves; the % refers to the signal ratio; further: potency means the concentration at half of the fitted maximal effect); conditions: SBE-bla HEK293T, TGF-beta/Smad beta-lactamase reporter, 5 h; activation: at 76.8 µM (top of the series)
# In short: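 After overnight seeding, SBE-bla HEK 293T cells are dosed with compounds in DMSO and kept 5 hr at 37 C, 5% CO2. LiveBLAzer-type FRET substrate is then applied for 2 hr at room temperature.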
# [9] = qHTS assay to identify small molecule antagonists of the TGF-beta/Smad signaling pathway - cell viability counter screen (AID 1346824); further: on the % scale 0 is the no-effect control and ±100 the full control effect; nearly all actives have a fitted effect of over 50% in size
# In short: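 Cytotoxicity counter-screen run in the same wells as the beta-lactamase Smad reporter read: CellTiter-Glo luminescence after 30 min at room temperature. HEK 293T SBE-bla cells had 5 hr compound exposure at 37 C with TGF-beta1 (0.25 ng/mL stock).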
# [10] = qHTS assay to identify small molecule agonists of the TGF-beta/Smad signaling pathway - cell viability counter screen (AID 1346829); further: top concentration of the series differs between compounds; on the % scale 0 is the no-effect control and ±100 the full control effect; nearly all actives have a fitted effect of over 45% in size
# In short: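 In parallel with the Smad reporter read, viability of HEK 293T cells stably carrying SBE-bla is quantified by ATP luminescence following 5 hr compound treatment.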
# [11] = qHTS assay to identify small molecule antagonists of the progesterone receptor (PR) signaling pathway - cell viability counter screen (AID 1346798); further: nearly all actives have a fitted effect of over 50% in size; further: potency means the concentration at half of the fitted maximal effect
# In short: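 CellTiter-Glo luminescence; PR-UAS-bla HEK293T, 3,000 cells/well; compound + R5020, 16 hr, 37C/5% CO2; 30 min RT before read.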
# [12] = target: Thyrotropin receptor (Homo sapiens) (UniProt P16473); experiment: qHTS assay to identify small molecule antagonists of the thyroid stimulating hormone receptor (TSHR) signaling pathway (AID 1259385; calls by dose curve; further: nearly all actives have a fitted effect of over 20% in size; further: potency means the concentration at half of the fitted maximal effect); conditions: TSHR-HEK293 cAMP HTRF, TSH-stimulated antagonist mode; activity change, negative = inhibition: at 92.4 µM (top of the series) unless noted
# In short: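 Antagonist mode: compound-treated TSHR-expressing HEK293 cells were stimulated with 1.5 ng/mL TSH (final) in presence of Ro20-1724 for 30 min at RT. HTRF cAMP detection after 1 h; each compound tested at 15 concentrations, triplicate.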
# [13] = qHTS assay to identify small molecule agonists or antagonists of the thyroid stimulating hormone receptor (TSHR) signaling pathway - wild type cell line counter screen (AID 1259384; calls by dose curve; further: on the % scale 0 is the no-effect control and ±100 the full control effect); conditions: HEK293 wild type, cAMP HTRF counter-screen; cAMP activity change: at 92.4 µM (top of the series), hits give high values unless noted
# In short: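 Counter screen in untransfected Hek293: compounds (15-point titration, triplicate) plus phosphodiesterase inhibitor Ro20-1724 added after 18 h plating; 30 min RT. Intracellular cAMP via competitive d2/cryptate immunoassay, 1 h incubation.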
# [14] = target: Progesterone receptor (Homo sapiens) (UniProt P06401); experiment: qHTS assay to identify small molecule agonists of the progesterone receptor (PR) signaling pathway (AID 1346784; calls by dose curve; further: on the % scale 0 is the no-effect control and ±100 the full control effect; nearly all actives have a fitted effect of over 30% in size); conditions: PR-UAS-bla HEK293T, beta-lactamase FRET ratio, 16 h; activation: at 92.4 µM (top of the series) unless noted
# In short: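 Fluorescence from LiveBLAzer B/G FRET substrate cleavage (2 hr, RT) reported PR activation in PR-UAS-bla HEK 293T cells treated 16 hr at 37C/5% CO2 with compounds; medium contained 2% charcoal-stripped FBS.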
# Tags describe the fitted curve by direction and shape or compound fluorescence and quenching.
# Chain of UniProt P16473 (P16473 whole entry, looked up): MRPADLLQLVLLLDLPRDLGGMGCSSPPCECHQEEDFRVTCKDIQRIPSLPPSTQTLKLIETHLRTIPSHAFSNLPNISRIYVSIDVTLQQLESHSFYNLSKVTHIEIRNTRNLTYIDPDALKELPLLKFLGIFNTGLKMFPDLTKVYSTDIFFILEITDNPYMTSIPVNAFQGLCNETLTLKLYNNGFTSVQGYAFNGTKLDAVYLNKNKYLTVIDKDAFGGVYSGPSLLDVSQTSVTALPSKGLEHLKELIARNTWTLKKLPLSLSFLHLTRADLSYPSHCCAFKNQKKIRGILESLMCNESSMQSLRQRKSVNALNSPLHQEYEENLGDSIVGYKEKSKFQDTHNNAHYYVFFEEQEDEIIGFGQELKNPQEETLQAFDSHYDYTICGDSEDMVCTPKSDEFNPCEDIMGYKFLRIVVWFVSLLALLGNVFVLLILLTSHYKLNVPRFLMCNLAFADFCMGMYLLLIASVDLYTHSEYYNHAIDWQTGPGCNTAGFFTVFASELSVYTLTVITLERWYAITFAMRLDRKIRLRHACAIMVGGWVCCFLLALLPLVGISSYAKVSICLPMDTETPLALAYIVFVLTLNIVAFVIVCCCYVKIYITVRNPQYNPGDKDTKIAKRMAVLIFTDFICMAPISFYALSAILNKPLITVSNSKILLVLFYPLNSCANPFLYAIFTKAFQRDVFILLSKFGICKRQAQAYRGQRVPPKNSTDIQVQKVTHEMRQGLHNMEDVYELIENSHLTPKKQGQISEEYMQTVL
# Chain of UniProt P06401 (P06401 whole entry, looked up): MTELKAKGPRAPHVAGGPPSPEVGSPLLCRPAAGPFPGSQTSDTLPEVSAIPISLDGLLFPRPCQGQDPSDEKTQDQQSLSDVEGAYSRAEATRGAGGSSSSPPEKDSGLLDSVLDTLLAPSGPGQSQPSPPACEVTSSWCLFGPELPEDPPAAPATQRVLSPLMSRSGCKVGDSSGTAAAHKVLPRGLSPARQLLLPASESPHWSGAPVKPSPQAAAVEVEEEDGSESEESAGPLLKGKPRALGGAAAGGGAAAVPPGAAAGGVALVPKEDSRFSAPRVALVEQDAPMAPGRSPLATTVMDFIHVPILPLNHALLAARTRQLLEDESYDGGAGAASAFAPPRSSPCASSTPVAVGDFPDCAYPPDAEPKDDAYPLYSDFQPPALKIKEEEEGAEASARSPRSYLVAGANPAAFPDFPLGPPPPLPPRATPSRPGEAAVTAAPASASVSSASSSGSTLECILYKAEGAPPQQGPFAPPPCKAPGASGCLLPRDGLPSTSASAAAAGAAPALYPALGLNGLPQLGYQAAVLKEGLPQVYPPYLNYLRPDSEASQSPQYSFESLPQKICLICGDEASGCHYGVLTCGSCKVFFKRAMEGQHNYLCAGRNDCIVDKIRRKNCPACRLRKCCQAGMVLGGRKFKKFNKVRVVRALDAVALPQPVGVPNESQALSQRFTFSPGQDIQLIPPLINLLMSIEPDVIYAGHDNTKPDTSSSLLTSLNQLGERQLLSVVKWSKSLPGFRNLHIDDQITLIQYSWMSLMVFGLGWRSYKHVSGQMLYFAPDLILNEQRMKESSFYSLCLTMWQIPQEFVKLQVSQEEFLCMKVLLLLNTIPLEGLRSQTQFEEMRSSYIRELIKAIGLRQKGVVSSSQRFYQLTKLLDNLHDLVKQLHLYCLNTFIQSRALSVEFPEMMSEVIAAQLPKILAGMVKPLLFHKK
# Chain of UniProt P10275 (P10275 whole entry, looked up): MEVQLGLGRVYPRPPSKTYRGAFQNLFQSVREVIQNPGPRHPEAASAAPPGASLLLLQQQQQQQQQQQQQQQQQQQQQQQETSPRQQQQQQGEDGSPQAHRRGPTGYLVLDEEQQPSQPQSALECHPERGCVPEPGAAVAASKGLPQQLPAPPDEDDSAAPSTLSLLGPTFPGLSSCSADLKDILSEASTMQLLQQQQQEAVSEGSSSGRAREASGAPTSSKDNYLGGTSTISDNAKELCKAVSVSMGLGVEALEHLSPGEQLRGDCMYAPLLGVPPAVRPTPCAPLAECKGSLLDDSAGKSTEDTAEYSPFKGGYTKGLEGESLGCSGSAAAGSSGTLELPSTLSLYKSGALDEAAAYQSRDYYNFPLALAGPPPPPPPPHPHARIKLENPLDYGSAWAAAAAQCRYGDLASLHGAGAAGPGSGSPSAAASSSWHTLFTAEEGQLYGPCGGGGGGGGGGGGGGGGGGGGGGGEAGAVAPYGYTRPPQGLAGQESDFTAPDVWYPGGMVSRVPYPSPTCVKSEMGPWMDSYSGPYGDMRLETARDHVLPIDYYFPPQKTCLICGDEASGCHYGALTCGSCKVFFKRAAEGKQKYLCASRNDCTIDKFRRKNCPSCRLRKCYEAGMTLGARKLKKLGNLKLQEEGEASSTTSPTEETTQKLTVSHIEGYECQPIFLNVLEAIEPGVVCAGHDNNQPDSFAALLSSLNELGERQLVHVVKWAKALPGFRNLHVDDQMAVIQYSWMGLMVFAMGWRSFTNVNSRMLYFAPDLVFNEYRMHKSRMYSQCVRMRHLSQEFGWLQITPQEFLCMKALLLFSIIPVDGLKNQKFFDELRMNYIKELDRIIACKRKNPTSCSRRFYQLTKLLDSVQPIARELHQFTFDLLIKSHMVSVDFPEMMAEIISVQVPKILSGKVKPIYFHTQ
# Chain of UniProt P34981 (P34981 whole entry, looked up): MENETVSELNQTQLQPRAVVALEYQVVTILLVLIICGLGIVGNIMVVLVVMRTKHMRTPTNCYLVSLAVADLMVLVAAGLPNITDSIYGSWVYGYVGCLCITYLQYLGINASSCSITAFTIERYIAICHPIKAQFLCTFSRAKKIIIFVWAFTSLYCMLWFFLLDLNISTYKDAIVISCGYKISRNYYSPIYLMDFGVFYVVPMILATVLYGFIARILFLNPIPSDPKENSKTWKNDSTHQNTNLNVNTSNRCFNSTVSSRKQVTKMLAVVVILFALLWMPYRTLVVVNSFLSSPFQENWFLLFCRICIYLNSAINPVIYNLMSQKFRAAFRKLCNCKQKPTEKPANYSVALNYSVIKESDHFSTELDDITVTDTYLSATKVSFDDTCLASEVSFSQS
# Chain of UniProt P03372 (P03372 whole entry, looked up): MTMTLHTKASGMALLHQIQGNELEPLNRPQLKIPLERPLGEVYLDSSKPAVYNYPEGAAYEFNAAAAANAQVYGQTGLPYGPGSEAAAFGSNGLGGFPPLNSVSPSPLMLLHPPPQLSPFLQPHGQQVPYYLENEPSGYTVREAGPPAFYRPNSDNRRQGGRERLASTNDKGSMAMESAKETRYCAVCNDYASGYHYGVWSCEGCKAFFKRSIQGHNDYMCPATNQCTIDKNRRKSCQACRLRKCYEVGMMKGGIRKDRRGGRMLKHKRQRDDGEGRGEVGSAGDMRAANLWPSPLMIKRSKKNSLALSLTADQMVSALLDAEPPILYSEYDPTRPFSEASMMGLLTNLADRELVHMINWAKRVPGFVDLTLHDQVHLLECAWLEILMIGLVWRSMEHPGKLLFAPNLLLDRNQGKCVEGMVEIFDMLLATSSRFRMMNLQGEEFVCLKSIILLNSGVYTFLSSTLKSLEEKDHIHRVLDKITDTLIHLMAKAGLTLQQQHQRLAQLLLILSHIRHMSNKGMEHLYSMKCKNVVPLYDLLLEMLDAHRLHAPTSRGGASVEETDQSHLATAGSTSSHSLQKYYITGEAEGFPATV
compound,measurement,setting,value
CCN(O)CC,Potency,[1],inactive
same,Potency,[2],"inconclusive [inhibitor, single point]"
CC(C(=O)O)c1ccc(C(=O)c2ccccc2)s1 (stereo not drawn),Potency,[3],"inconclusive [rising, partial curve]"
same,Potency,[4],"inconclusive [activator, partial curve, poor fit]"
same,Potency,[5],inactive
O=C(OCCCCCOC(=O)c1ccccc1)c1ccccc1,Potency,[6],inactive
O=C(c1ccccc1)c1ccc2n1CCC2C(=O)O (stereo not drawn),Potency,[1],inactive
same,Potency,[7],"inconclusive [cytotoxic, single point]"
same,Potency,[8],"inconclusive [rising, partial curve, poor fit]"
COC(=O)c1cc(Cl)c(NC(C)=O)cc1OC,Potency,[1],inactive
same,Potency,[7],"inconclusive [cytotoxic, single point]"
O=C(O)c1ccc2c(c1)nc(C(=O)NC1CCN(C3CC3)CC1)n2Cc1cc(-c2ccc(Cl)s2)on1,Potency,[1],"inconclusive [cytotoxic, partial curve]"
same,"viability change, negative = cytotoxic",[9],inactive: 0.205% [at 15.8 µM]
same,"activity change, negative = cytotoxicity",[10],inactive: 20.2% [at 15.8 µM]
same,Potency,[8],"inconclusive [rising, partial curve]"
OC[C@H]1O[C@@H](Oc2ccc(O)cc2)[C@H](O)[C@@H](O)[C@@H]1O,Potency,[1],inactive
same,Potency,[11],inactive
same,Potency,[7],inactive
Cc1ccccc1C#N,Potency,[6],inactive
CC(C)C[C@H](NC(=O)CNC(=O)[C@H](Cc1ccc(O)cc1)NC(=O)[C@H](CO)NC(=O)[C@H](Cc1c[nH]c2ccccc12)NC(=O)[C@H](Cc1cnc[nH]1)NC(=O)[C@@H]1CCC(=O)N1)C(=O)N[C@@H](CCCN=C(N)N)C(=O)N1CCC[C@H]1C(=O)NCC(N)=O (stereo in doubt),Potency,[1],"inconclusive [rising, single point]"
same,Potency,[11],inactive
same,Potency,[7],"inconclusive [cytotoxic, partial curve, poor fit]"
CC(C)COC(=O)/C=C/c1ccccc1,Potency,[1],inactive
same,Potency,[7],inactive
CCCC(C)C,Potency,[1],active: 61.8 µM
same,Potency,[5],inactive
same,Potency,[11],"inconclusive [cytotoxic, full curve]"
same,Potency,[7],"inconclusive [cytotoxic, partial curve]"
CCCCOCC(C)O (stereo not drawn),Potency,[6],inactive
CC(C)COC(=O)c1ccccc1,Potency,[1],inactive
same,Potency,[5],inconclusive
same,Potency,[11],"inconclusive [cytotoxic, partial curve, poor fit]"
same,Potency,[7],"inconclusive [cytotoxic, partial curve]"
CCCCCCCCCCCCCCCC(=O)O,Potency,[1],"inconclusive [cytotoxic, partial curve, poor fit]"
same,Potency,[11],"inconclusive [cytotoxic, single point]"
CC(C)=CCC/C(C)=C\C#N,Potency,[1],"inconclusive [rising, full curve]"
same,Potency,[11],"inconclusive [cytotoxic, single point]"
same,Potency,[7],"inconclusive [cytotoxic, single point]"
CN(C)CCCCl,Potency,[12],"inconclusive [falling, single point]"
O=C(O)CCCC[P+](c1ccccc1)(c1ccccc1)c1ccccc1,Potency,[12],inactive
CC(C#N)(CCC(=O)O)N=NC(C)(C#N)CCC(=O)O (stereo not drawn),Potency,[12],inactive
CC(=O)O[C@H]1C[C@@H]2CC[C@@H]3[C@H](CC[C@@]4(C)[C@H]3C[C@H]([N+]3(C)CCCCC3)[C@@H]4OC(C)=O)[C@@]2(C)C[C@@H]1N1CCCCC1,Potency,[12],inactive
Cc1ncc([N+](=O)[O-])n1CCO,Potency,[12],inactive
CCOC(=O)c1cc(=O)c2c(OCC(COc3cccc4oc(C(=O)OCC)cc(=O)c34)OC(=O)[C@@H](N)CCCCN)cccc2o1,Potency,[6],inactive
same,Potency,[11],"inconclusive [cytotoxic, single point]"
NC(=S)NNC(N)=S,Potency,[6],inactive
same,Potency,[9],inactive
Nc1ccc(S(=O)(=O)c2ccc(N)cc2)cc1,cAMP activity change,[13],inconclusive: 1.91%
same,Potency,[14],inactive
same,"activity change, negative = inhibition",[5],inconclusive: 6.52%
CCC(C(=O)O)c1ccc(N2Cc3ccccc3C2=O)cc1 (stereo not drawn),Potency,[6],inactive
C[C@@H](c1ncncc1F)C(O)(Cn1cncn1)c1ccc(F)cc1F (stereo partly drawn),Potency,[12],inactive
Cc1oc2c(NC(=O)c3c(Cl)cccc3Cl)cccc2c1C(C)(C)O,Potency,[6],"inconclusive [cytotoxic, full curve, poor fit]"
same,activation,[14],inconclusive: -12.7%
same,Potency,[5],active: 24.3 µM
same,Potency,[7],"inconclusive [rising, partial curve, poor fit]"
CCc1c(C)[nH]c2c1C(=O)C(CN1CCOCC1)CC2 (stereo not drawn),Potency,[12],inactive
CC(C)CC=O,Potency,[12],"inconclusive [rising, full curve, poor fit]"
CCCS(=O)c1ccc2nc(NC(=O)OC)[nH]c2c1 (stereo not drawn),Potency,[6],inactive
same,Potency,[13],inactive
same,Potency,[11],inactive
CC(=O)CC(c1ccc([N+](=O)[O-])cc1)c1c(O)c2ccccc2oc1=O (stereo not drawn),Potency,[12],"inconclusive [falling, single point]"
CCCCNc1ccc(C(=O)OCCN(C)C)cc1,Potency,[13],inactive
same,Potency,[5],inactive
Nc1c(CC(=O)O)cccc1C(=O)c1ccc(Br)cc1,Potency,[6],inactive
same,Potency,[14],inactive
same,Potency,[7],"inconclusive [cytotoxic, full curve, poor fit]"
same,Potency,[8],"inconclusive [rising, partial curve]"
